About 800 (1.6%) of roughly 50,000 compounds showed an effect of 50% or more. This is one part of the list.

In this experiment the target is Bcl-2-like protein 10 (Homo sapiens) (UniProt Q9HD36). Nature of the experiment: TR3 peptide-Bcl-B binding displacers, biochemical primary FP assay, phenotype converters (AID 1240).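 Also: 0% = Bcl-B with tracer peptide and DMSO and 100% = tracer peptide lacking Bcl-B.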 Particulars: GST-Bcl-B / FITC-TR3 peptide fluorescence polarization; stronger effect = higher value; compound at 3.75 mg/L.
UniProt Q9HD36, sequence (Q9HD36 whole entry, looked up): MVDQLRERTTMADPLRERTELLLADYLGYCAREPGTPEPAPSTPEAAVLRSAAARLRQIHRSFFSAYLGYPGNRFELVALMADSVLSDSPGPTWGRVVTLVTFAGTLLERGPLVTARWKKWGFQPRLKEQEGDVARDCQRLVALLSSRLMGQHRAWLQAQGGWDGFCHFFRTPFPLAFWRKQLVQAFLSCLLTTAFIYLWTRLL
For the compound `CCOc1ccc(/C=C2\N=C(c3ccccc3F)OC2=O)cc1`, the displacement was determined as 11%.

For the compound `CC1=C(C(=O)OC2CCCCC2)C(c2cccc3ccccc23)C2=C(CCCC2=O)N1` (configuration not stated), the displacement was 1.2%.

On to `COC(=O)c1ccc(/C=C2\SC(=S)N(NC(=O)Cc3ccccc3)C2=O)cc1`, for which the displacement is -6.3%.

In the case of `CCOc1ccc(NC(=O)COc2ccc(Br)cc2)cc1`, the displacement stood at 1.8%.

Regarding `Cc1cc(=O)oc2c1c(C)nn2-c1ccc(Br)cc1`, the displacement stood at 2.1%.

As for `COc1ccc(/C=C2\SC(=S)N(CC(C)C)C2=O)c(OC)c1`, the displacement is 9.8%.

Consider `COCCN1C(=O)C(=O)/C(=C(/O)c2ccccc2)C1c1ccc(Cl)cc1` (configuration not stated), for which the displacement was found to be 15.8%.

As to `CCOC(=O)C1C(=O)OC2(CCCCC2)C1C(=O)OCC` (configuration not stated), the displacement was -10.1%.

`CC(C)N1CN=C2SC(CO)(CO)C(=O)N2C1`: the displacement came out at 9.8%.

Consider `COc1cc(CN2CCN(Cc3ccc(OC)c(OC)c3OC)CC2)cc(OC)c1O`, for which the displacement is -12%.

As to `Cc1ccc(C(=O)NC(=S)NCCCN2CCOCC2)cc1`, the displacement is -8.5%.

For the compound `Cc1ncsc1CCOC(=O)C12CC3CC(CC(C)(C3)C1)C2`, the displacement amounted to 8.9%.

For `COc1ccc(C(=O)Nc2cc([N+](=O)[O-])ccc2C)cc1OC`, the displacement is -2.9%.

Consider `CC1CCN(CCC(=O)N/N=C/c2ccc(N(C)C)cc2)CC1`, for which the displacement was -10.2%.

As for `COc1ccc(-c2nnc(NC(=O)c3ccccc3OC)s2)cc1OC`, the displacement was 25%.

With `CCN(CC)c1ccc(C(=O)Nc2nccs2)cc1`, the displacement turned out to be 8.3%.

As for `O=C1CC(SC(=NCCc2ccccc2)Nc2ccc(F)cc2)C(=O)N1c1ccc(F)cc1` (configuration not stated), the displacement is -7.4%.

With `Cc1ccc(N2CCN(C(=S)c3ccc(-c4cccc([N+](=O)[O-])c4)o3)CC2)cc1`, the displacement was -6.1%.

On to `COc1ccc(-c2nnc(NC(=O)c3ccc(Cl)cc3)s2)cc1`, for which the displacement was -11%.

`CCOC(=O)CSc1nc2ccc(N)cc2s1`: the displacement was -2.6%.

For the compound `CC(NC(=S)Nc1ccccc1)C1COc2ccccc2O1` (configuration not stated), the displacement is -7.3%.

For the compound `O=C(NC(=S)Nc1ccc([N+](=O)[O-])cc1O)c1ccc(F)cc1`, the displacement was -0.7%.

Regarding `CCOC(=O)c1c(NC(=O)CN2CCCCC2)sc2c1CC(C)(C)OC2`, the displacement was -6.1%.

With `COC(=O)c1cc(NC(=O)c2ccc(I)cc2)cc(C(=O)OC)c1`, the displacement amounted to 8.3%.

With `C/C(=N\NS(=O)(=O)c1ccc(C)c([N+](=O)[O-])c1)c1ccc(N)cc1`, the displacement was -1.5%.

On to `Cc1cc(NC(=O)Nc2cccc(Cl)c2)no1`, for which the displacement is -7.3%.

As to `Cc1cccc(OCC(=O)NCC(C)C)c1`, the displacement was found to be 14.3%.

In the case of `Nc1nnc(CCc2ccccc2)s1`, the displacement was -7.8%.

With `CC(C)(C)N1C(=O)c2ccc(C(=O)c3ccc(C(=O)O)cc3)cc2C1=O`, the displacement was 2.5%.

Take `CC(C)(CO)NC(=O)CC12CC3CC(CC(C3)C1)C2`: the displacement is -14.1%.

As for `Cc1ccc(CNC(=O)C(=O)NCC(C)C)cc1`, the displacement stood at 14%.

For `O=[N+]([O-])c1cccnc1N1CCOCC1`, the displacement was -13.3%.

Take `COc1ccc(C(CC(=O)c2ccc(O)cc2)S(=O)(=O)c2ccc(C)cc2)cc1` (configuration not stated): the displacement was 11%.

Turning to `COC(=O)CN(c1ccc(OC)c(Cl)c1)S(=O)(=O)c1ccccc1`, the displacement came out at 3.2%.

As to `O=C1CC(N2CCCCC2)C(=O)N1Cc1ccccc1` (configuration not stated), the displacement is -9.6%.

In the case of `COc1ccc(NC(=O)CSc2nc3ccc(N4C(=O)c5ccccc5C4=O)cc3s2)cc1`, the displacement stood at 1.7%.

With `COc1cccc(C=C2C(=O)NC(=S)NC2=O)c1OCC#N`, the displacement was found to be 19.1%.

On to `C/C(=N\NC(=O)COc1ccc(Cl)cc1)c1ccc(Cl)s1`, for which the displacement amounted to 1.3%.

For `Cc1cccnc1NC(=O)COc1ccc(Cl)cc1Cl`, the displacement was -10.1%.

Take `O=[N+]([O-])c1cccc(S(=O)(=O)Nc2ccccc2Br)c1`: the displacement was -9.9%.

Consider `Cc1cccc(OCCOc2ccccc2/C=N/n2cnnc2)c1`, for which the displacement is -4.5%.

On to `CC1=C(C(=O)OCc2ccccc2)C(c2c(F)cccc2Cl)CC(=O)N1` (configuration not stated), for which the displacement was -2.6%.

On to `Cc1ccc2[nH]c(C)c(CN3CC(C)OC(C)C3)c(=O)c2c1` (configuration not stated), for which the displacement amounted to 14.9%.

In the case of `C=CCNC(=O)c1ccc(OCc2ccccc2)cc1`, the displacement is 10.2%.

On to `O=C(COc1ccccc1Cl)Nc1nc(-c2ccccc2)cs1`, for which the displacement was 0.8%.

Turning to `CCOC(=O)N/N=C/C=C/c1ccccc1`, the displacement is -8.6%.

Turning to `O=C(NCc1ccco1)C1c2ccccc2Oc2ccccc21`, the displacement turned out to be 15.4%.

`O=C(NC1CCCCCC1)c1ccccc1[N+](=O)[O-]`: the displacement was -10.7%.

As for `CC(C1CC1)N(Cc1ccccc1)C(=O)Nc1cccc([N+](=O)[O-])c1` (configuration not stated), the displacement is 12.4%.

With `CCOC(=O)c1c[nH]c2ccc([N+](=O)[O-])cc2c1=O`, the displacement is -6.8%.

For `CCOc1ccccc1N1CCN(C(=O)c2ccc([N+](=O)[O-])cc2)CC1`, the displacement worked out at 11.1%.

On to `COc1ccc2c(c1)nc(C)n2Cc1ccccc1`, for which the displacement is -5%.

Consider `COc1ccc(-c2cc(C(F)(F)F)n3nc(C(N)=O)cc3n2)cc1`, for which the displacement was 7.8%.

As for `O=C(Nc1ccc(Cl)cc1)Nc1ccc(Br)cc1`, the displacement was -1.6%.

In the case of `C/C(=N\NC(=O)c1cc(C(C)(C)C)[nH]n1)c1ccc([N+](=O)[O-])cc1`, the displacement is -12.1%.

For the compound `Cc1ccc(NC2CC(C)N(C(=O)c3cccc(F)c3)c3cc(C)ccc32)cc1` (configuration not stated), the displacement is -18.7%.

For the compound `Cc1cccc(N2C(=O)/C(=C/c3ccc(O)c(Cl)c3)C(=O)NC2=S)c1C`, the displacement came out at 14.5%.

In the case of `O=[N+]([O-])c1cc(Cl)c(-c2ccco2)c(Cl)c1`, the displacement was -5.3%.

`CCCNC(=O)c1nn2c(C(F)(F)F)cc(-c3ccccc3)nc2c1Br`: the displacement is -1.5%.

As to `O=C(O)CSc1nnc(-c2ccco2)n1-c1ccccc1`, the displacement came out at 0.4%.

With `Cc1ccc(C(=O)Nc2ccc(NC(=O)c3ccccc3)cc2)cc1S(=O)(=O)N1CCCCC1`, the displacement was found to be 0.2%.

Regarding `CC1=C(C(=O)OCCc2ccccc2)C(c2cccc([N+](=O)[O-])c2)NC(=O)N1` (configuration not stated), the displacement was 6.9%.

On to `COc1ccccc1C(=O)NNC(=O)CCN1C(=O)/C(=C/c2ccc(C)cc2)SC1=S`, for which the displacement is -1.2%.

As to `O=C(Nc1ccc(F)c([N+](=O)[O-])c1)C(c1ccccc1)c1ccccc1`, the displacement stood at 14.9%.

As to `Cc1nnc(Nc2ccc(C(=O)N3CCCCC3)cc2)c2ccccc12`, the displacement came to 3.4%.

In the case of `O=C(Nc1ccccc1C(=O)NCc1ccccc1)c1ccccc1Cl`, the displacement worked out at 5.6%.

Consider `CCOC(=O)c1ccc2c(c1)C1C=CCC1C(c1ccc([N+](=O)[O-])cc1)N2` (configuration not stated), for which the displacement was determined as 11.1%.

With `COc1ccc(S(=O)(=O)N(C)Cc2ccccc2)cc1Br`, the displacement is -3.9%.

For `COC(=O)C1=C(C(=O)OC)SC(=C2C(=S)C(C)(C)N(C(=O)C(F)(F)F)c3ccc(C)cc32)S1`, the displacement worked out at 11.6%.

As to `C/C(=N\N=C(/N)SC1CC(=O)N(c2ccc(Cl)cc2)C1=O)c1ccc(Br)s1` (configuration not stated), the displacement is -17.6%.

As for `COC(=O)c1cc(-c2cccc(Br)c2)nc2ccccc12`, the displacement is -15.3%.

`Cc1ccccc1OCC(=O)N/N=C/c1ccc(O)cc1O`: the displacement is -2.5%.

Take `O=C(CCCOc1ccccc1)Nc1ncn[nH]1`: the displacement is -0.7%.

Consider `CCCS(=O)(=O)c1c(S(=O)(=O)CCC)c2cc(-c3ccncc3)ccn2c1C(=O)OC`, for which the displacement was -1.6%.

In the case of `CCCCOCC(O)CSCCCC` (configuration not stated), the displacement was determined as 2.1%.

As for `O=C(NC(C(=O)N1CCCCC1)=C1CCCCC1)c1ccccc1`, the displacement was -3.1%.

Consider `CCOc1ccccc1NC(=O)c1c(NC(=S)Nc2ccccc2)sc2c1CCCCC2`, for which the displacement is -21%.

Regarding `O=C1NN(c2ccccc2)C(=O)/C1=C/c1ccc(OCCOc2ccccc2)cc1`, the displacement worked out at 15.6%.

As for `CC1=NN(c2nc(-c3ccc(Cl)c(Cl)c3)cs2)C(=O)C1C` (configuration not stated), the displacement was -22.9%.

Consider `O=C1C(=O)N(C2CCCC2)C(=O)N1C1CCCCC1`, for which the displacement worked out at 14.4%.

In the case of `COc1ccc(S(=O)(=O)N(CCc2ccccc2)CC(=O)NC2CCCCC2)cc1`, the displacement was found to be 14.2%.

On to `Oc1ccc(-c2cn3c(n2)SCC3)cc1O`, for which the displacement came to 28.5%.

Regarding `Cc1ccccc1C(=O)NN1C(=O)/C(=C\c2ccco2)SC1=S`, the displacement amounted to 26%.

In the case of `COc1ccc(/C=c2\sc3nc(-c4ccccc4)nn3c2=O)cc1`, the displacement is 77.5%.

`O=C1C2C3C=CC(C4CC34)C2C(=O)N1c1cccc(C(F)(F)F)c1` (configuration not stated): the displacement is -10.7%.

As to `COc1ccc(-n2c(=O)c3c4c(sc3n3c(SC)nnc23)CCCC4)cc1`, the displacement is -0.7%.

Consider `CC1=NN(c2ccccc2)C(=O)C1C=C1C(=O)NC(=O)NC1=O` (configuration not stated), for which the displacement was -5.2%.

On to `N#Cc1c(NC(=O)CCCN2C(=O)c3ccccc3C2=O)sc2c1CCCC2`, for which the displacement is 9.7%.

In the case of `CCc1ccc(/C=C2/C(=O)NC(=O)N2C(C)=O)cc1`, the displacement came out at 13.8%.

Take `COc1ccc(/C=C2\SC(=S)N(NC(=O)c3cccnc3)C2=O)cc1`: the displacement was found to be 3.4%.

For the compound `CCCC(=O)Nc1cccc(NC(=O)c2ccccc2I)c1`, the displacement worked out at 3.7%.

Regarding `O=[N+]([O-])c1ccc(Cl)c(-n2ncnc2-c2ccc(F)cc2)c1`, the displacement came to 0.8%.

Consider `CC1CN(C(=O)c2c(Cl)cccc2Cl)CC(C)O1` (configuration not stated), for which the displacement was -7.8%.

Turning to `CC(=O)Oc1cccc(/C=C2\C=C(c3ccc(C)cc3)OC2=O)c1`, the displacement came out at 7%.

Take `C=C(C)C(=O)OCn1c2ccccc2c2cc([N+](=O)[O-])ccc21`: the displacement was 6.3%.

Take `CC1=NN(c2ccc(S(N)(=O)=O)cc2)C(=O)/C1=C\c1ccc(-c2ccc(C(=O)OC(C)C)cc2)o1`: the displacement is 8.3%.

On to `C/C(=N/N=C1/c2ccccc2C(=O)C1C(=O)C(c1ccccc1)c1ccccc1)c1cccs1` (configuration not stated), for which the displacement amounted to 11%.

Turning to `Cc1ccc2[nH]c3c(c2c1)CCN(C)C3`, the displacement was -13.5%.

Consider `NS(=O)(=O)c1cccc(NC(=O)c2cc3ccccc3o2)c1`, for which the displacement amounted to 4.5%.

For `O=C1/C(=C/c2ccc(Cl)c(Cl)c2)SC(=S)N1Cc1ccco1`, the displacement turned out to be 14.2%.

On to `CCOC(=O)Cc1csc(NC(=O)c2cccc(F)c2)n1`, for which the displacement was -18.5%.

As for `Cc1cc(NC(=O)c2ccccc2[N+](=O)[O-])no1`, the displacement is -9.2%.

For `COc1ccc(CCN=Cc2c(O)n(-c3c(Cl)cccc3Cl)c3ccccc23)cc1OC`, the displacement is -6%.

As for `Cc1ccc(-c2noc(-c3cccs3)n2)cc1`, the displacement is -1.6%.

In the case of `Cc1cccc(OCC(=O)Nc2cccc(I)c2)c1`, the displacement was 0%.

As to `O=C(N/C(=C/c1cccc(Br)c1)C(=O)N1CCCCCC1)c1ccccc1`, the displacement is -8.5%.

Regarding `CC(C)OC(=O)c1sc2cc([N+](=O)[O-])ccc2c1Cl`, the displacement was 11.5%.

For `CCC(=O)Nc1ccc(NC(=O)/C=C/c2ccc(-c3ccc(Cl)cc3Cl)o2)cc1`, the displacement was -14.5%.

Take `Cc1ccc2nsnc2c1NC(=O)C(c1ccccc1)c1ccccc1`: the displacement stood at 0.6%.

With `O=c1c(C=NCc2ccco2)c(-c2ccccc2)[nH]n1-c1nc2ccccc2s1`, the displacement is -6.7%.

Take `Cc1cc(C)nc(NC(=O)/C=C/c2ccc(Cl)cc2Cl)c1`: the displacement is -0.3%.

For `COc1ccc(C2=C/C(=C/c3ccc([N+](=O)[O-])cc3)C(=O)O2)c(OC)c1`, the displacement came out at 8.9%.

Values taken from PubChem BioAssay AID1240 (Sanford-Burnham Center for Chemical Genomics, 2008).
